Measurements from PubChem BioAssay AID1768 (National Center for Advancing Translational Sciences (NCATS), 2009).
In all, about 270,000 compounds went through this assay and about 620 (0.23%) were called active. Inconclusive means that the source gave no clear call. Such entries were picked first, then a sample of the others. Calls come from the whole dose curve; as a rule, active = well fitted inhibition curve with a large enough effect in the polarisation, with a control signal flat (not every such curve was filed as active); inconclusive = small, poorly fitted or top-dose-only effect, or effect the other way, or a change in a side signal; inactive = no such curve, though single readings can be large or run the other way; the % refers to the polarisation. A potency beside an inconclusive call is a rough fit, not a confirmed value. “Side channel” marks fits to a control or component signal instead of the main read-out.

Molecular target: Menin (Homo sapiens) (UniProt O00255)
Chain of UniProt O00255 (O00255 whole entry, looked up): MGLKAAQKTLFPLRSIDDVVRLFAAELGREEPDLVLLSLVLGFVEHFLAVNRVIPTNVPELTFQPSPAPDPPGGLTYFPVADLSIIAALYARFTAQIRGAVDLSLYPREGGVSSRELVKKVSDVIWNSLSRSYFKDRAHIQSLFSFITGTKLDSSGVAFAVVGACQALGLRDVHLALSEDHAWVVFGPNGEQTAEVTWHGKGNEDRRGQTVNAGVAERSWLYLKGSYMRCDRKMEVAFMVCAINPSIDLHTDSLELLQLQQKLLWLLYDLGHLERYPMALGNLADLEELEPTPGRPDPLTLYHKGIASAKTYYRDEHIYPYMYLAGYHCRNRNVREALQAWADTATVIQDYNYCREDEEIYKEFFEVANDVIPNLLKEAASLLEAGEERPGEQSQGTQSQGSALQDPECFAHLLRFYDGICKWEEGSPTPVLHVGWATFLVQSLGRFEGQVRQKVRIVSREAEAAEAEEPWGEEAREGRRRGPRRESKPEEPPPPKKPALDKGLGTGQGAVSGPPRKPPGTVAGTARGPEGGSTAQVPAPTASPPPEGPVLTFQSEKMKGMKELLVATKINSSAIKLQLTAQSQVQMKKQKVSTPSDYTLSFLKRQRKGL
Assay: qHTS Assay for Inhibitors Targeting the Menin-MLL Interaction in MLL Related Leukemias: Competition With Texas Red Labeled MLL-derived Mutant Peptide
Conditions: fluorescence polarization; series mostly up to 61.6 µM
Potency is the fitted concentration of half-maximal effect; tags give direction and shape of the fitted curve or compound fluorescence and quenching.

Potency, inactive:
COc1ccc(NS(=O)(=O)c2ccc(NC(=O)C3CCCO3)cc2)cc1 (stereo not given), CCCCn1cc[n+](C)c1, CCOC(=O)C1CCN(CC(=O)Nc2c(C(=O)OC)[nH]c3ccc(Cl)cc23)CC1, CCCCNc1nc(N(C)c2ccccc2)nc(-n2ccnc2)n1, CC(C)(C)c1ccc(S(=O)(=O)Nc2ccc(Cc3ccncc3)cc2)cc1, O=C(O)c1ccc(COc2ccc(/C=N/NC(=O)c3cccs3)cc2)cc1, CCc1ccc(CN2CCC(n3nccc3NC(=O)C3CCCC3)CC2)cc1, N#Cc1ccc(-c2ccc(OCC(=O)NCCc3ccccc3)cc2)cc1, CCN(CC)C(=O)Nc1ccc(OC[C@H](O)CNC(C)(C)C)c(C(C)=O)c1, C[C@H]1C2=C3C(CC[C@H]4C(OCc5ccc(F)cc5C(F)(F)F)OC[C@](C)([C@@H]34)N(C(=O)OC(C)(C)C)C2)C2COC(=O)OCC21 (stereo not given in full)

Potency, active:
O=C(Nc1nc(-c2ccc(S(=O)(=O)N3CCCC3)cc2)cs1)C1COc2ccccc2O1 (stereo not given) 10 µM

Potency, inconclusive:
CC(C)NC(=O)CC(=O)N/N=C/c1ccc(Br)cc1 3.16 µM [inhibitor, partial curve], O=C(N/N=C\c1ccccc1O)c1ccccc1O 8.91 µM [quencher, side channel, full curve], O=C(Cn1c(=O)n(CCc2c[nH]c3ccccc23)c(=O)c2cccnc21)Nc1ccccc1F 28.2 µM [quencher, side channel, single point], CCCCn1c(CN2CCN(C)CC2)nc2ccccc21 25.1 µM [fluorescent, side channel, single point], CCC(Oc1ccc(C)c(C)c1)C(=O)N1CCCN(C)CC1 (stereo not given) 3.98 µM [fluorescent, side channel, single point], CCN(CC)C(=O)C1CCN(Cc2cn(C)nc2-c2ccc(Oc3ccccc3)cc2)CC1 4.47 µM [fluorescent, side channel, full curve], O=c1c2c3nc4ccccc4nc3n(Cc3ccccc3)c2ncn1Cc1ccco1 5.62 µM [quencher, side channel, full curve], CCOC(=O)c1sc(Nc2nc3c(F)cccc3s2)cc1C 2.82 µM [quencher, side channel, full curve], CS(=O)(=O)Nc1cccc(-c2nc(NCc3ccccc3)c3ccccc3n2)c1 20 µM [quencher, partial curve], COc1cc(/C=N/Nc2ccc3ccccc3c2)ccc1OC(=O)c1ccco1 17.8 µM [quencher, single point], CC(/C=C1\SC(=S)N(C(C(=O)O)C(C)C)C1=O)=C\c1ccccc1 (stereo not given) 20 µM [quencher, side channel, partial curve], COC(=O)c1cc2c(-c3ccccc3)cc3ccccn3c-2c1C(=O)OC 39.8 µM [inhibitor, single point], CCOC(=O)Cc1c(C)nc2c(-c3ccc(Cl)cc3)c[nH]n2c1=O 28.2 µM [quencher, side channel, single point], O=C(NCC(c1cccnc1)N1CCN(c2ccc(F)cc2)CC1)c1ccc(F)cc1 (stereo not given) 0.708 µM [inhibitor, full curve, poor fit], CCCOc1ccc(/C=N/Nc2ccc(C(=O)O)cc2)c(OCCC)c1 14.1 µM [quencher, single point], CC(CN1CCOCC1)OC(=O)c1ccc(C(C)(C)C)cc1 (stereo not given) 8.91 µM [inhibitor, single point], CC(C)C(=O)N1CCN(c2ccc(NC(=O)c3ccc(Br)o3)cc2)CC1 4.47 µM [inhibitor, partial curve], CCOc1ccc(S(=O)(=O)N2CCN(C)CC2)cc1NC(=O)c1ccccc1F 0.631 µM [inhibitor, full curve, poor fit], CCCCCC(=O)Nc1nc(C)c(-c2csc(Nc3ccccc3OCC)n2)s1 10 µM [quencher, side channel, partial curve], CC(NC(=S)Nc1ccc([N+](=O)[O-])cc1)c1ccncc1 (stereo not given) 14.1 µM [quencher, side channel, partial curve], CCOC(=O)C1(Cc2ccccc2C(F)(F)F)CCN(C2CCSC2)CC1 (stereo not given) 15.8 µM [fluorescent, side channel, partial curve], O=C(CCC1CCCC1)NNC(=O)c1cc2ccccc2cc1O 28.2 µM [quencher, single point], CCOC(=O)c1c(NC(=O)C(C)NCc2ccco2)sc2c1CCC(C)C2 (stereo not given) 7.94 µM [fluorescent, side channel, full curve, poor fit], c1ccc(Oc2ncnc3oc(-c4ccccc4)cc23)cc1 22.4 µM [fluorescent, side channel, partial curve], NS(=O)(=O)c1ccc(NC(=O)/C=C/c2cn(-c3ccccc3)nc2-c2cccc(Cl)c2)cc1 15.8 µM [fluorescent, side channel, single point], COc1cccc(-c2csc(N3CCN(C(=S)Nc4ccccc4Cl)CC3)n2)c1 39.8 µM [inhibitor, single point], CSC(=S)N/N=C/c1ccc(N(C)C)cc1 14.1 µM [quencher, side channel, partial curve], CCCOc1ccc(C(=O)CCNC(Cc2c[nH]c3ccccc23)C(=O)O)cc1 (stereo not given) 11.2 µM [inhibitor, partial curve, poor fit], Nc1ccc(C(=O)Nc2ccc(NC(=O)c3ccco3)c(O)c2)cc1 20 µM [quencher, side channel, single point], O=C(COC(=O)CCOc1ccccc1)Nc1ccc(Cl)cn1 22.4 µM [quencher, side channel, single point], O=C(Nc1nccs1)c1ccc(-c2ccccc2[N+](=O)[O-])o1 11.2 µM [quencher, side channel, partial curve], Cc1cc(O)c(C=O)c2c1C(=O)Oc1c(CO)c(O)c3c(c1O2)C(O)OC3=O (stereo not given) 25.1 µM [quencher, side channel, partial curve], OCCN(CCO)c1nc(N2CCCCC2)c2nc(N(CCO)CCO)nc(N3CCCCC3)c2n1 7.94 µM [fluorescent, side channel, partial curve], COc1ccc(/C=C/C(=O)c2ccc(O)cc2)cc1COc1ccc(F)cc1 31.6 µM [quencher, side channel, single point], COc1ccc(Cl)cc1NC(=O)CC(C)=O 28.2 µM [quencher, side channel, single point], Cc1cccc(OCC(=O)N/N=C/c2ccc3c(c2)OCO3)c1 20 µM [inhibitor, partial curve], C=CCn1c(SCC(=O)Nc2cccnc2Cl)nnc1-c1ccc(C(C)(C)C)cc1 22.4 µM [fluorescent, side channel, partial curve], CCOC(=O)N1CCN(C(=O)c2cc3cc(C)ccc3[nH]2)CC1 39.8 µM [inhibitor, single point], CN(CCNC(=O)c1cc2c(-c3ccccc3F)nn(C)c2s1)C1CCCCC1 8.91 µM [inhibitor, full curve, poor fit], Cc1ccc(C(=O)Nc2cccc([N+](=O)[O-])c2)cc1S(=O)(=O)Nc1cccc(C(=O)O)c1 15.8 µM [quencher, side channel, partial curve], CCN(CC)CCCNC(=O)c1cc2c(Cl)nc3ccccc3c2s1 15.8 µM [inhibitor, partial curve, poor fit], Cc1cc(SCC#N)n2nc(C)c(-c3ccc(Cl)cc3)c2n1 31.6 µM [quencher, side channel, partial curve], Cc1cc(Nc2ccccc2)nn1C(=O)c1ccccc1 11.2 µM [quencher, side channel, partial curve], CC1(O)c2ccccc2C(=O)N1CCc1ccccc1F (stereo not given) 20 µM [inhibitor, partial curve], COc1ccc(-c2cc(C(F)(F)F)nc(SCC(N)=O)n2)cc1 39.8 µM [inhibitor, single point], COC(=O)c1ccc(NC(=O)c2cc3sccc3n2C)cc1 14.1 µM [quencher, side channel, partial curve], COc1ccc(N2CCN(S(=O)(=O)c3c(C)noc3/C=C/N(C)C)CC2)cc1 31.6 µM [quencher, side channel, single point], CCOC(=O)C1Nc2ccc(Br)cc2C2C=CCC12 (stereo not given) 15.8 µM [quencher, side channel, partial curve], O=[N+]([O-])c1ccc(O)c(-c2nc(-c3ccccc3)c(-c3cccs3)[nH]2)c1 10 µM [quencher, side channel, partial curve]
